No constants are given. Whether binding was seen depends on the method and setting. In cells and extracts the contact can be indirect. Some entries that bind do so weakly or less than the wild type. Sequences can lack the tags named with a protein.
How the values were obtained:
Test in all cases: co-IP; lysates of transfected HeLa or 293 T cells in EBC buffer (50 mM Tris pH 8.0, 120 mM NaCl, 0.5% NP-40); 800 μg lysate with 1-2 μg antibody overnight at 4 °C, carrier beads 1 h, washes in NETN buffer, immunoblot; in some panels cells were treated with D4476 or UVC
Myc-Cullin 1 = Myc-Cullin 1 (UniProt Q13616)
Myc-Cullin 2 = Myc-Cullin 2 (UniProt Q13617)
Myc-Cullin 3 = Myc-Cullin 3 (UniProt Q13618)
Myc-Cullin 5 = Myc-Cullin 5 (UniProt Q93034)
Myc-Skp1 = Myc-Skp1 (UniProt P63208)
Myc-CKIα = Myc-CKIα (UniProt P48729)
Myc-CKIδ = Myc-CKIδ (UniProt P48730)

Chains of the proteins cited; added tags and fusions are not shown. Lines headed by an entry give the natural chain unless they say otherwise; changes in a name come on top.
UniProt Q13616: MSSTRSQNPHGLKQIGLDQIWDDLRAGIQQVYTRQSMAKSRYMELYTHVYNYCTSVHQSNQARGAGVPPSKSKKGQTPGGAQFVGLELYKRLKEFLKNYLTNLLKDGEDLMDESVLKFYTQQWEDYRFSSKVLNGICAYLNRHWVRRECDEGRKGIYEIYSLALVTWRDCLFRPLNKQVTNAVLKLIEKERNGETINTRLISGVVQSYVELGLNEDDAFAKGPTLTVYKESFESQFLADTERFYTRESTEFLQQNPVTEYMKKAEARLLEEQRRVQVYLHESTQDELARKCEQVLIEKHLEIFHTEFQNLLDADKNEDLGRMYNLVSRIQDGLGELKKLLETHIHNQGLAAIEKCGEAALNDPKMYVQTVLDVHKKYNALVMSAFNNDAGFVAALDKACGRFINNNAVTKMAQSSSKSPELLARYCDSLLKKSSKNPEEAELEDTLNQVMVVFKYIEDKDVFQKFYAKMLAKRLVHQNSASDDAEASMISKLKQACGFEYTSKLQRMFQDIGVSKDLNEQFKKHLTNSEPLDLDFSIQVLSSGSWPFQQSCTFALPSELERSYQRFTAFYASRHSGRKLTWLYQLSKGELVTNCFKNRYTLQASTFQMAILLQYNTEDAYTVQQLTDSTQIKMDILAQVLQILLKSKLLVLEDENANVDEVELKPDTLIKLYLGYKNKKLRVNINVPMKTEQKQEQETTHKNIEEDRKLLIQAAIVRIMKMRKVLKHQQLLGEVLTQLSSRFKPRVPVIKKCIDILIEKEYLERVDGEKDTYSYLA
UniProt Q13617: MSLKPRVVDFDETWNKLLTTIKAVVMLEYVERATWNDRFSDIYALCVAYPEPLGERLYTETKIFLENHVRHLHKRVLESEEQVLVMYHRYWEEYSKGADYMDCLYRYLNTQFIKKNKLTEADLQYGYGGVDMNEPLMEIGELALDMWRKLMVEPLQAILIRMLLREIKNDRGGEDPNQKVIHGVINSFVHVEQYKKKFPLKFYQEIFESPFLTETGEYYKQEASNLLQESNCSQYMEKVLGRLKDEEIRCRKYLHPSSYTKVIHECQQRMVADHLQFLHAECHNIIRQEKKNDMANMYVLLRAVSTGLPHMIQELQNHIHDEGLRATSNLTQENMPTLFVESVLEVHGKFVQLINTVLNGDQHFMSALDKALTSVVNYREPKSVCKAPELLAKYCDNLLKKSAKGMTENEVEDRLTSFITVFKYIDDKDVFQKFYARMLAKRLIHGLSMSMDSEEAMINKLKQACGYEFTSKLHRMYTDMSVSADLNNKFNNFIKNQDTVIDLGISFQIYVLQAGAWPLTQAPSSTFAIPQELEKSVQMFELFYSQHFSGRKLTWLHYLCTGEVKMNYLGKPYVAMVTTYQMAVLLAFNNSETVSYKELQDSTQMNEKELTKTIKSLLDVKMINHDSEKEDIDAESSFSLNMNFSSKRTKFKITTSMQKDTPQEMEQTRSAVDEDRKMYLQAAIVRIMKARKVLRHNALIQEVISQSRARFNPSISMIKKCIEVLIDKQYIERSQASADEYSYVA
UniProt Q93034: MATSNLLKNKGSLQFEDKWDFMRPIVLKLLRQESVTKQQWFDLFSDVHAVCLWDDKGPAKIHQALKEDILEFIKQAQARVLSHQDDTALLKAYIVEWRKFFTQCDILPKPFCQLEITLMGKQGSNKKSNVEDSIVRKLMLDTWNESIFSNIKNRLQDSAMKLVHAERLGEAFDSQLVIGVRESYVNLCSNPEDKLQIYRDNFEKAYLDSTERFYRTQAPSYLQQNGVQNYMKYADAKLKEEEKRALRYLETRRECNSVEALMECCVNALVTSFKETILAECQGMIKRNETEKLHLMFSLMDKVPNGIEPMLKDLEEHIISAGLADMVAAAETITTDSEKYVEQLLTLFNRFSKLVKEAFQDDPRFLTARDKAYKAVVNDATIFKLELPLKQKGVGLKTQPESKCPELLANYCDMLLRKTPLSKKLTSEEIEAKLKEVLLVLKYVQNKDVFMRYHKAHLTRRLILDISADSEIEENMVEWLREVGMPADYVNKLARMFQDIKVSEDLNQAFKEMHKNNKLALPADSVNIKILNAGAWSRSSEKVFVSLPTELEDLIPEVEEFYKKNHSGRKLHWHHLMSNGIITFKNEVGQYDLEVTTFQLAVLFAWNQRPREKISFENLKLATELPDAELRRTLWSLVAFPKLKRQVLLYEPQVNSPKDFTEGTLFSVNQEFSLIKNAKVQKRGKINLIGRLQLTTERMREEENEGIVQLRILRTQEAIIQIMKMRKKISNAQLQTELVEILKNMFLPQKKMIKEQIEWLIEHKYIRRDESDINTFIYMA
UniProt P63208: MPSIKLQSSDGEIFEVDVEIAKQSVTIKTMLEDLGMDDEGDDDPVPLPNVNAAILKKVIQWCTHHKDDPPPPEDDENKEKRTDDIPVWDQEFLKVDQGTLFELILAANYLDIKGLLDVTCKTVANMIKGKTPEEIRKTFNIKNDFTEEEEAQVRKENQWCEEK
UniProt P48729: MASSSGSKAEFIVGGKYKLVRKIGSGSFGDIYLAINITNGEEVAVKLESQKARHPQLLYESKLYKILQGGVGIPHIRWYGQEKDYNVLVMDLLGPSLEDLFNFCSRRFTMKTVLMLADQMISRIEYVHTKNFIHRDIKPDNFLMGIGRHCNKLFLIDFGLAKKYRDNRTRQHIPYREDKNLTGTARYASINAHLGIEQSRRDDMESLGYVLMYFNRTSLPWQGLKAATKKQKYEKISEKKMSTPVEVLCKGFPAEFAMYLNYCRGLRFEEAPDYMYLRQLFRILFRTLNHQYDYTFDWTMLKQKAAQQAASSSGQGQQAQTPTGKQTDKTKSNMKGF
UniProt P48730: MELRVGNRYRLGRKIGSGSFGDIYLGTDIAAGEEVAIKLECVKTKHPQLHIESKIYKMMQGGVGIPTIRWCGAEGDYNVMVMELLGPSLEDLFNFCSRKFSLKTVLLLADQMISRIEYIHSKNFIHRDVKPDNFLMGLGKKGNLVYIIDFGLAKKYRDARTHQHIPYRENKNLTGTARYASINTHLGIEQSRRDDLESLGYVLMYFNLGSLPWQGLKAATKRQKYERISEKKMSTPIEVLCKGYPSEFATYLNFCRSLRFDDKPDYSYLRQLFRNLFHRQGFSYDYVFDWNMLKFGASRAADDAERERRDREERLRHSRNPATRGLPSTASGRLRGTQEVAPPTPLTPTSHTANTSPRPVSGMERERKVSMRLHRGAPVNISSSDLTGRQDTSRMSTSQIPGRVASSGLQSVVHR

Row | binding (Myc-Cullin 1) | binding (Myc-Cullin 2) | binding (Myc-Cullin 3) | binding (Myc-Cullin 5) | binding (Myc-Skp1) | binding (Myc-CKIα) | binding (Myc-CKIδ) | Binder
1 | binds | no binding | no binding | no binding | binds | – | – | Flag-Set8 (protein, UniProt Q9NQR1 1-393) MGEGGAAAALVAAAAAAAAAAAAVVAGQRRRRLGRRARCHGPGRAAGGKMSKPCAVEAAAAAVAATAPGPEMVERRGPGRPRTDGENVFTGQSKIYSYMSPNKCSGMRFPLQEENSVTHHEVKCQGKPLAGIYRKREEKRNAGNAVRSAMKSEEQKIKDARKGPLVPFPNQKSEAAEPPKTPPSSCDSTNAAIAKQALKKPIKGKQAPRKKAQGKTQQNRKLTDFYPVRRSSRKSKAELQSEERKRIDELIESGKEEGMKIDLIDGKGRGVIATKQFSRGDFVVEYHGDLIEITDAKKREALYAQDPSTGCYMYYFQYLSKTYCVDATRETNRLGRLINHSKCGNCQTKLHDIDGVPHLILIASRDIAAGEELLYDYGDRSKASIEAHPWLKH
2 | – | – | – | – | – | binds | binds | HA-Set8 (protein, UniProt Q9NQR1 1-393) MGEGGAAAALVAAAAAAAAAAAAVVAGQRRRRLGRRARCHGPGRAAGGKMSKPCAVEAAAAAVAATAPGPEMVERRGPGRPRTDGENVFTGQSKIYSYMSPNKCSGMRFPLQEENSVTHHEVKCQGKPLAGIYRKREEKRNAGNAVRSAMKSEEQKIKDARKGPLVPFPNQKSEAAEPPKTPPSSCDSTNAAIAKQALKKPIKGKQAPRKKAQGKTQQNRKLTDFYPVRRSSRKSKAELQSEERKRIDELIESGKEEGMKIDLIDGKGRGVIATKQFSRGDFVVEYHGDLIEITDAKKREALYAQDPSTGCYMYYFQYLSKTYCVDATRETNRLGRLINHSKCGNCQTKLHDIDGVPHLILIASRDIAAGEELLYDYGDRSKASIEAHPWLKH
3 | no binding | – | – | – | no binding | – | – | Flag-Set8^S253A (protein, UniProt Q9NQR1 1-393) MGEGGAAAALVAAAAAAAAAAAAVVAGQRRRRLGRRARCHGPGRAAGGKMSKPCAVEAAAAAVAATAPGPEMVERRGPGRPRTDGENVFTGQSKIYSYMSPNKCSGMRFPLQEENSVTHHEVKCQGKPLAGIYRKREEKRNAGNAVRSAMKSEEQKIKDARKGPLVPFPNQKSEAAEPPKTPPSSCDSTNAAIAKQALKKPIKGKQAPRKKAQGKTQQNRKLTDFYPVRRSSRKSKAELQSEERKRIDELIEAGKEEGMKIDLIDGKGRGVIATKQFSRGDFVVEYHGDLIEITDAKKREALYAQDPSTGCYMYYFQYLSKTYCVDATRETNRLGRLINHSKCGNCQTKLHDIDGVPHLILIASRDIAAGEELLYDYGDRSKASIEAHPWLKH
